From paper PMC11452662
Where “and” joins values, the source holds several entries; their conditions need not be identical. Identical values can stand only once. Values belong to the binder of their own block, whether it stands above or below them.

Columns and labels:
[1] = biological target: T1, recombinant avidin expressed from corn, P02701; experiment: native MS; avidin as bought and avidin recovered with biotin-conjugated SNAP beads from a spike in E. coli lysate; 150 mM ammonium acetate; low collisional dissociation settings; conditions: remark: other sources report otherwise
T1 chain: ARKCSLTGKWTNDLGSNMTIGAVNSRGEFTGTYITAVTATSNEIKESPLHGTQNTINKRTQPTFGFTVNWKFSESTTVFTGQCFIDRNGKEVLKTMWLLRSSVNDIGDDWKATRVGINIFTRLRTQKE

[2] = biological target: T2, natural egg white avidin, P02701; experiment: as above; conditions: remark: other sources report otherwise
T2 chain: T1 chain

stoichiometry N [1]: 4 and 8
B1: recombinant avidin expressed from corn, P02701 25-152 (natural protein)
chain: T1 chain
modifications: here or on the partner: glycosylated (heterogeneous); glycosylated (heterogeneous)

stoichiometry N [2]: 4
B2: natural egg white avidin, P02701 25-152 (natural protein)
chain: T1 chain
modifications: here or on the partner: glycosylated (heterogeneous); glycosylated (heterogeneous)
